The results in this text go back to patent US9920371B2, “Screening method” (Medvet Science Pty. Ltd., priority 2011, dated 2018).

For the test, the system named is 14-3-3ζ^−/− mice and wild-type controls. As to the kind of experiment: Psychotropic drug induced PPI test (prepulse inhibition of acoustic startle). Format: in vivo, mouse. As to conditions: prepulse 16 dB over 70 dB baseline, ISI 100 msec.

On to `CN1CCc2cccc3c2[C@H]1Cc1ccc(O)c(O)c1-3` [apomorphine], for which the “effect on PPI” value (14-3-3ζ^−/− (14-3-3ζ^062−/−) mice, listed as APO) was “induces further PPI defects” and the “effect on PPI” value (wild-type (14-3-3ζ^062+/+) mice) is given as “induce PPI defects”.
